# Assay results as given in publication PMC4275180.
# Protein sequences, listed by entry. Tags and fused reporters are not part of them. Lines headed by an entry give the natural chain unless they say otherwise; changes in a name come on top.
# UniProt P42224: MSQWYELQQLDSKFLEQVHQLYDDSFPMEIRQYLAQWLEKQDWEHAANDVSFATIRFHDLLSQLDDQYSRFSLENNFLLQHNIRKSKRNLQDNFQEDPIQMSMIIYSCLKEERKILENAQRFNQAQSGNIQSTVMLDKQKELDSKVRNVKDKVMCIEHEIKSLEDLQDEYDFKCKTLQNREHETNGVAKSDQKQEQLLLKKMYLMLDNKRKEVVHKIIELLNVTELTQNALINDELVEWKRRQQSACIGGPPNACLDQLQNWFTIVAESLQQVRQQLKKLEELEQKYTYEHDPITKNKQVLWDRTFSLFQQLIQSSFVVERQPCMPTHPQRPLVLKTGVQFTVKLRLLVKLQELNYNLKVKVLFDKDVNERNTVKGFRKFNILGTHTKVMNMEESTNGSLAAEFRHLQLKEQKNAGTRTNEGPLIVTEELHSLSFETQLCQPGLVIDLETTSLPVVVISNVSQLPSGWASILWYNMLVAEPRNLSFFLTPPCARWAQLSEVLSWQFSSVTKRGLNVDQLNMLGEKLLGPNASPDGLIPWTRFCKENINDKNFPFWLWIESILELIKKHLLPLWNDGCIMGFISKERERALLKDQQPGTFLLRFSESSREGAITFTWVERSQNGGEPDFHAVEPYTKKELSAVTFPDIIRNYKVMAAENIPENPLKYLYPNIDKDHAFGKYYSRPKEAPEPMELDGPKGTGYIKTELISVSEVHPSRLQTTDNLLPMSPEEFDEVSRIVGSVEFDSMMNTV
# Where a chain is given by its changes, count along the chain named. Names may count otherwise. These are yes or no findings as the source states them, for the method shown. In cells and extracts the contact can be indirect. Some entries that bind do so weakly or less than the wild type. Sequences can lack the tags named with a protein.
# B1: FLAG-KDM3A-S264D, full length (protein, UniProt Q9Y4C1 1-1321)
# chain: MVLTLGESWPVLVGRRFLSLSAADGSDGSHDSWDVERVAEWPWLSGTIRAVSHTDVTKKDLKVCVEFDGESWRKRRWIEVYSLLRRAFLVEHNLVLAERKSPEISERIVQWPAITYKPLLDKAGLGSITSVRFLGDQQRVFLSKDLLKPIQDVNSLRLSLTDNQIVSKEFQALIVKHLDESHLLKGDKNLVGSEVKIYSLDPSTQWFSATVINGNPASKTLQVNCEEIPALKIVDPSLIHVEVVHDNLVTCGNSARIGAVKRKDSENNGTLVSKQAKSCSEASPSMCPVQSVPTTVFKEILLGCTAATPPSKDPRQQSTPQAANSPPNLGAKIPQGCHKQSLPEEISSCLNTKSEALRTKPDVCKAGLLSKSSQIGTGDLKILTEPKGSCTQPKTNTDQENRLESVPQALTGLPKECLPTKASSKAELEIANPPELQKHLEHAPSPSDVSNAPEVKAGVNSDSPNNCSGKKVEPSALACRSQNLKESSVKVDNESCCSRSNNKIQNAPSRKSVLTDPAKLKKLQQSGEAFVQDDSCVNIVAQLPKCRECRLDSLRKDKEQQKDSPVFCRFFHFRRLQFNKHGVLRVEGFLTPNKYDNEAIGLWLPLTKNVVGIDLDTAKYILANIGDHFCQMVISEKEAMSTIEPHRQVAWKRAVKGVREMCDVCDTTIFNLHWVCPRCGFGVCVDCYRMKRKNCQQGAAYKTFSWLKCVKSQIHEPENLMPTQIIPGKALYDVGDIVHSVRAKWGIKANCPCSNRQFKLFSKPASKEDLKQTSLAGEKPTLGAVLQQNPSVLEPAAVGGEAASKPAGSMKPACPASTSPLNWLADLTSGNVNKENKEKQPTMPILKNEIKCLPPLPPLSKSSTVLHTFNSTILTPVSNNNSGFLRNLLNSSTGKTENGLKNTPKILDDIFASLVQNKTTSDLSKRPQGLTIKPSILGFDTPHYWLCDNRLLCLQDPNNKSNWNVFRECWKQGQPVMVSGVHHKLNSELWKPESFRKEFGEQEVDLVNCRTNEIITGATVGDFWDGFEDVPNRLKNEKEPMVLKLKDWPPGEDFRDMMPSRFDDLMANIPLPEYTRRDGKLNLASRLPNYFVRPDLGPKMYNAYGLITPEDRKYGTTNLHLDVSDAANVMVYVGIPKGQCEQEEEVLKTIQDGDSDELTIKRFIEGKEKPGALWHIYAAKDTEKIREFLKKVSEEQGQENPADHDPIHDQSWYLDRSLRKRLHQEYGVQGWAIVQFLGDVVFIPAGAPHQVHNLYSCIKVAEDFVSPEHVKHCFWLTQEFRYLSQTHTNHEDKLQVKNVIYHAVKDAVAMLKASESSFGKP
# B2: FLAG-KDM3A-S264D (214-306) (domain or fragment, UniProt Q9Y4C1 214-306)
# chain: GNPASKTLQVNCEEIPALKIVDPSLIHVEVVHDNLVTCGNSARIGAVKRKDSENNGTLVSKQAKSCSEASPSMCPVQSVPTTVFKEILLGCTA
# B3: FLAG-KDM3A (214-306), wild type, in heat-shocked cells (domain or fragment, UniProt Q9Y4C1 214-306)
# chain: B2 chain with D51S
# modifications: phosphoserine at 264 (the paper calls it the 93aa fragment of p-KDM3A under HS)
# Legend:
# GST-KDM3A (1-394) S264A = target: T1, GST-KDM3A (1-394) S264A (UniProt Q9Y4C1); test: pull-down; GST pull-down with recombinant 1-394 fragments of KDM3A (wild type, S/A, S/D) and HA-Stat1(129-317)
# T1 sequence: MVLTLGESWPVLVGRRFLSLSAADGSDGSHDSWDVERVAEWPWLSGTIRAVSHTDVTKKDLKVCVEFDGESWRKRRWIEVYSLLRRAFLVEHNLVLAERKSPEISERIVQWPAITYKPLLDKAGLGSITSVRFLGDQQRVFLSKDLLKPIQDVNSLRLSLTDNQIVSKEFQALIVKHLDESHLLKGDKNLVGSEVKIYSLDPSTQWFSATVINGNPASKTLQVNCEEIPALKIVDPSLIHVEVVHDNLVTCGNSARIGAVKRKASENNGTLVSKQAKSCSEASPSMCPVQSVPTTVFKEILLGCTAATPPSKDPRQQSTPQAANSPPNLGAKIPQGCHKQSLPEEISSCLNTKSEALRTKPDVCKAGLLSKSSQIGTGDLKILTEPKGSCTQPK
# GST-KDM3A (1-394) S264D = target: T2, GST-KDM3A (1-394) S264D (UniProt Q9Y4C1); test: as above
# T2 sequence: T1 sequence with A264D
# [1] = target: T3, GST-KDM3A (1-394), wild type (UniProt Q9Y4C1); test: as above
# T3 sequence: T1 sequence with A264S
# [2] = target: T4, FLAG-KDM3A-S264D (214-306) (UniProt Q9Y4C1); test: co-IP; FLAG-KDM3A-S264D (214-306) co-transfected with an HA-Stat1 fragment into Jurkat cells; whole cell extract, IP anti-FLAG; western blot anti-HA
# T4 sequence: B2 chain
# [3] = target: HA-Stat1 (129-317), truncation mutant S5 (UniProt P42224); test: co-IP; FLAG-KDM3A construct co-transfected with HA-Stat1 construct into Jurkat cells, with or without heat shock; whole cell extract, IP anti-HA; western blot anti-FLAG
# [4] = target: HA-Stat1, full length (S1) (UniProt P42224); test: as above
# HA-Stat1 (231-317) = HA-Stat1 (231-317) (UniProt P42224); test: as above
molecule,measurement,setting,value
"HA-Stat1 (129-317), truncation mutant S5 (from UniProt P42224 129-317) (domain or fragment)",binding,GST-KDM3A (1-394) S264A,no binding
same,binding,GST-KDM3A (1-394) S264D,binds
same,binding,[1],no binding
HA-Stat1 (231-317) (from UniProt P42224 231-317) (domain or fragment),binding,[2],binds
B1,binding,[3],binds
same,binding,[4],binds
B2,binding,[3],binds
same,binding,HA-Stat1 (231-317),binds
B3,binding,HA-Stat1 (231-317),binds
